Patent EP0328121A1, “Substituted hydrazine mitomycin analogs” (priority 1988, dated 1989)
Several values for one entry are separate records, joined by “and”; a condition that tells them apart may be missing. Equal values may be shown once. At least one read-out could not be matched to a standard name with certainty.

System: P-388 murine leukemia
Experiment: Activity against P-388 murine leukemia (P-388 screen, survival of tumor-implanted mice)
Type: in vivo, CDF₁ female mice
Details: P-388 lymphocytic leukemia ip (10⁶ ascites cells), single ip dose on the day of inoculation, 30-day protocol; value at the optimal dose; mitomycin C = concurrently run positive control
Method: The Table contains the results of laboratory tests with CDF₁ female mice implanted intraperitoneally with a tumor inoculum of 10⁶ ascites cells of P-388 murine leukemia and treated with various doses of either a test compound of this invention, or with mitomycin C. The compounds were administered by intraperitoneal injection. Groups of six mice were used for each dosage amount and they were treated with a single dose of the compound on the day of inoculation. A group of ten saline treated control mice was included in each series of experiments. The mitomycin C treated groups were included as a positive control. A 30-day protocol was employed with the mean survival time in days being determined for each group of mice and the number of survivors at the end of the 30-day period being noted.
The results were determined in terms of % T/C which is the ration of the mean survival time of the treated group to the mean survival time of the saline treated control group times 100. The saline treated control animals usually died within nine days. The "maximum effect" in the following Table is expressed as % T/C and the dose giving that effect is given in parentheses. The values in brackets are the values obtained with mitomycin C as the positive control in the same experiment. Thus, a measure of the relative activity of the present substances to mitomycin C can be estimated. A minimum effect in terms of % T/C was considered to be 125. The minimum effective dose (MED) reported in the following Table is that dose given a % T/C of approximately 125 or greater.

## CO[C@@]12[C@H](COC(N)=O)C3=C(C(O)=C(C)C(=NNC(=O)c4ccccc4)C3=O)N1C[C@@H]1N[C@@H]12 [II, Benzoic acid, [1aS-(1aα, 8β, 8aα, 8bα)]-[8-[[(aminocarbonyl)-oxy]methyl]-1,1a,2,8,8a,8b-hexahydro-4-hydroxy-8a-methoxy-5-methyl-7-oxoazirino[2′,3′,4]pyrrolo[1,2-a]indol-6(7H)-ylidene]hydrazide]
  Maximum %T/C: 150 %T/C

## CO[C@@]12[C@H](COC(N)=O)C3=C(C(O)=C(C)C(=NNC(=O)OCC4c5ccccc5-c5ccccc54)C3=O)N1C[C@@H]1N[C@@H]12 [VIII, 9′-Fluorenylmethyl[1aS-(1aα, 8β, 8aα, 8bα)]-[8-[[(aminocarbonyl)oxy]-methyl]-1,1a, 2,8,8a, 8b-hexahydro-4-hydroxy-8a-methoxy-5-methyl-7-oxoazirino[2′, 3′;3,4,]pyrrolo[1,2-a]indol-6(7H)-ylidene]hydrazine carboxylate]
  Maximum %T/C: 195 %T/C

## CO[C@@]12[C@H](COC(N)=O)C3=C(C(O)=C(C)C(=NNC(=O)c4cccs4)C3=O)N1C[C@@H]1N[C@@H]12 [IV]
  Maximum %T/C: 140 %T/C

## CO[C@@]12[C@H](COC(N)=O)C3=C(C(O)=C(C)C(=NNC(=O)c4cccnc4)C3=O)N1C[C@@H]1N[C@@H]12 [III, 3-Pyridinecarboxylic acid, [1aS-(1aα, 8β, 8aα, 8bα)]-[8-[[(aminocarbonyl)-oxy]methyl]-1,1a,2,8,8a,8b-hexahydro-4-hydroxy-8a-methoxy-5-methyl-7-oxoazirino[2′,3′;3,4,]pyrrolo[1,2-a]indol-6(7H)-ylidene]hydrazide]
  Maximum %T/C: 150 %T/C

## CO[C@@]12[C@H](COC(N)=O)C3=C(C(O)=C(C)C(=NNC(=O)OC(C)(C)C)C3=O)N1C[C@@H]1N[C@@H]12 [VI]
  Maximum %T/C: 160 %T/C

## CO[C@@]12[C@H](COC(N)=O)C3=C(C(O)=C(C)C(=NNC(C)=O)C3=O)N1C[C@@H]1N[C@@H]12 [I, Acetic acid, [1aS-(1aα, 8β, 8aα, 8bα)]-[8-[[(aminocarbonyl)oxy]methyl]-1,1a,2,8,8a,8b-hexahydro-4-hydroxy-8a-methoxy-5-methyl-7-oxoazirino [2′,3′;3,4]pyrrolo[1,2-a]indol-6(7H)-ylidene]hydrazide]
  Maximum %T/C: 190 %T/C

## CCOC(=O)NN=C1C(=O)C2=C(C(O)=C1C)N1C[C@@H]3N[C@@H]3[C@]1(OC)[C@@H]2COC(N)=O [V, Ethyl [1aS-(1aα, 8β, 8aα, 8bα)]-[8-[[(aminocarbonyl)oxy]methyl]-1,1a,2,8,8a,8b-hexahydro-4-hydroxy-8a-methoxy-5-methyl-7-oxoazirino[2′,3′,3,4]pyrrolo[1,2-a]indol-6(7H)-ylidene]hydrazinecarboxylate]
  Maximum %T/C: 180 %T/C

## CO[C@@]12[C@H](COC(N)=O)C3=C(C(=O)C(C)=C(N)C3=O)N1C[C@@H]1N[C@@H]12 [mitomycin C, 7-amino-9α-methoxymitosane, reference compound]
  Maximum %T/C: 215 %T/C and 205 %T/C

## CO[C@@]12[C@H](COC(N)=O)C3=C(C(O)=C(C)C(=NNC(=O)OCc4ccccc4)C3=O)N1C[C@@H]1N[C@@H]12 [VII, Phenylmethyl [1aS-(1aα, 8β, 8aα, 8bα)]-[8-[[(aminocarbonyl)-oxy]methyl]-1,1a, 2,8,8a, 8b-hexahydro-4-hydroxy-8a-methoxy-5-methyl-7-oxoazirino[2′, 3′; 3, 4]pyrrolo[1,2-a]indol-6(7H)-ylidene] hydrazinecarboxylate]
  Maximum %T/C: 185 %T/C
